Measurements: PubChem BioAssay AID463173 (ICCB-Longwood Screening Facility, Harvard Medical School, 2010)
The campaign covered roughly 52,000 compounds. About 1,700 (3.3%) were called active. No stated cut-off is given here; in the data, active means survival mostly below about 52% (no sharp cut-off); inactive means mostly above about 56%. The list shows a part of the results.

Each compound was assayed on Wild type (assay: S. aureus survival, RN4220 and DeltatarO strains – OD600, teichoic acid synthesis inhibitors, primary screen (AID 463173)). Conditions: S. aureus RN4220 wild type/DeltatarO growth, OD600, 18 h, stronger effect = lower value, screened at 18.75 µg/mL (by protocol).

SMILES | survival
CCOc1ccc(CC(=O)Nc2c(C(=O)c3ccc(Cl)cc3)oc3ccccc23)cc1OCC | inactive: 65%
CC1=C(C(=O)Nc2ccc(Cl)cc2)C(c2cccs2)n2nc(SCc3cccc(Cl)c3)nc2N1 (configuration not stated) | inactive: 95%
Cc1cccc(S(=O)(=O)c2cn(Cc3ccccc3)c3cc(N4CCC(C)CC4)c(F)cc3c2=O)c1 | inactive: 119%
COc1ccc(-n2nc3cc(C)c(NC(=O)COc4cccc(C)c4)cc3n2)cc1 | inactive: 78%
COc1cccc(CNC(=O)C(=O)NCC(c2cccs2)S(=O)(=O)c2cccs2)c1 (configuration not stated) | inactive: 74%
COc1cccc(OCc2nc3ccccc3n2Cc2ccccc2)c1 | inactive: 86%
COc1ccc(Nc2cc(C(=O)NCCCN(C)Cc3ccccc3)c3ccccc3n2)cc1OC | inactive: 120%
CN(C)S(=O)(=O)c1ccc(S(=O)(=O)N2CCN(C=O)CC2)cc1 | inactive: 110%
CC1CCc2c(sc3nnn(CC(=O)Nc4cccc(C(F)(F)F)c4)c(=O)c23)C1 (configuration not stated) | inactive: 99%
O=C1C(=O)N(C2CCN(C(=O)c3ccc(F)cc3)CC2)CCN1Cc1ccc(F)cc1 | inactive: 71%
CCOC(=O)C1CCN(C(=O)Cc2cccc3ccccc23)CC1 | inactive: 103%
CCOc1ccc(NCc2cccn2-c2nnc(N3CCC(C(=O)NC(C)c4ccccc4)CC3)s2)cc1 (configuration not stated) | inactive: 79%
COc1ccc(-c2cc(C(F)(F)F)nc(NCc3ccccc3)n2)cc1OC | inactive: 66%
COc1cccc(CN2c3ccccc3-c3nc(SCC(=O)Nc4cccc(C)c4)ncc3S2(=O)=O)c1 | inactive: 62%
CCc1ccc2oc(-c3cccc(NC(=O)c4ccc(-c5cccc([N+](=O)[O-])c5)o4)c3)nc2c1 | inactive: 52%
CCOc1ccc(Br)cc1C1C(C(=O)Nc2ccccc2OC)=C(C)Nc2nnnn21 (configuration not stated) | inactive: 90%
Cc1cccc(OC(C)C(=O)N2CCC(c3nc4ccccc4o3)CC2)c1C (configuration not stated) | inactive: 74%
CCc1nnc2c3ccccc3nc(Nc3ccc(F)cc3C)n12 | inactive: 64%
CCN1C(C(=O)c2ccccc2)=C(OC(=O)c2ccc(Cl)cc2)c2ccccc2S1(=O)=O | inactive: 77%
CCOc1cccc(NC(=O)CSc2ncc(-c3ccc(Cl)cc3)[nH]2)c1 | inactive: 33%
Cc1ccc(C(=O)N/C(=C/c2ccco2)C(=O)Nc2nccs2)cc1 | inactive: 81%
CCn1c(=O)c(=O)n(CC)c2cc(N3CCCCC3)c(NC(=O)c3cccc(OC)c3)cc21 | inactive: 88%

SMILES | survival
COc1ccc(C2CC(=O)C(C=NC3CCCC3)=C(O)C2)cc1 (configuration not stated) | inactive: 105%
Cc1oc(-c2ccc(C(=O)N(C)Cc3ccccc3)cc2)nc1CN1CCc2ccccc21 | inactive: 131%
CCOC(=O)c1cccc(NC(=O)N2Cc3ccccc3Oc3ncccc32)c1 | inactive: 81%
CC(=O)N1c2ccc(S(=O)(=O)NCCc3cccc(C)c3)cc2CC1C (configuration not stated) | inactive: 66%
COc1ccc(-n2c(=O)c3c4c(sc3n(Cc3ccccc3)c2=O)CCC4)c(OC)c1 | inactive: 71%
Cc1ccc(NC(=O)CC2Sc3ccccc3NC2=O)c(C)c1 (configuration not stated) | inactive: 145%
CCCCN(CCCC)S(=O)(=O)c1ccc(NC(=O)c2c(-c3ccccc3)noc2C)cc1 | inactive: 76%
CCN(C(=O)c1cc(S(=O)(=O)N2CCCCC2)c[nH]1)c1ccc(OC)cc1 | inactive: 88%
Cc1cc(C)cc(OCCOCCn2c(-c3ccc(Cl)cc3)nc3ccccc3c2=O)c1 | inactive: 39%
CN1CCC(OC(=O)Cc2ccc(Cl)cc2)CC1 | inactive: 103%
C=Cc1ccc(CSc2nc(-c3ccc(Cl)cc3)nc3c2Cc2c(CO)cnc(C)c2O3)cc1 | inactive: 85%
CCOc1ccc(-n2c(-c3ccc(OC)cc3)cc3c2CC(C)(C)CC3=O)cc1 | inactive: 41%
Cc1ccc(C)c(Cn2cc(CCC(=O)NC3CCCCC3)c3ccccc32)c1 | inactive: 86%
COc1cc(Cl)c(C)cc1NC(=O)CSCc1nc(-c2ccc(OC)c(OC)c2)no1 | inactive: 73%
Cn1c(NCc2ccccc2F)nc2ccccc21 | inactive: 104%
N=c1n(CCO)c2ccccc2n1CCOc1ccc(F)cc1 | inactive: 75%
Cc1cccc(C)c1NC(=O)C1CCN(S(=O)(=O)c2cccc3nsnc23)CC1 | inactive: 76%
CCC(=O)Nc1nc(-c2ccc3c(c2)CCN3C(C)=O)cs1 | inactive: 114%
CC(=O)c1cccc(-n2c(CCC(=O)O)ccc2-c2ccccc2)c1 | inactive: 81%
COc1ccc(OC)c(Nc2cc(C(=O)NCc3ccccc3)c3ccccc3n2)c1 | inactive: 139%
CCOC(=O)C1CCN(C(=O)c2ccc3c(c2)sc2nc(-c4ccc(OCC)cc4)cn23)CC1 | inactive: 86%
Cc1ccc(NC(=O)Cn2ccn(Cc3ccc(Cl)cc3)c(=O)c2=O)cc1C | inactive: 114%

SMILES | survival
COc1ccc(-c2nc(SCC(=O)NC3CCCC3)c(-c3ccccc3)[nH]2)cc1OC | inactive: 76%
O=C(N1CCCCC1)N1c2ccccc2C=Cc2ccccc21 | inactive: 95%
Cc1ccc(-n2ncc3c(Nc4ccc5c(c4)OCCO5)ncnc32)cc1C | inactive: 100%
CCOc1ccccc1C(=O)N1CCc2cc(OC)c(OC)cc2C1COc1ccc2c(C)cc(=O)oc2c1 (configuration not stated) | inactive: 76%
COc1ccc(/C=C(\NC(=O)c2ccccc2)C(=O)NC2CCCCC2)cc1 | inactive: 93%
Cc1ccc(OCCSc2nc3ccccc3n2CCC(=O)O)cc1C | inactive: 63%
CCOc1ccc(NC(=O)NC(CC)Cn2nnc3ccccc3c2=O)cc1 (configuration not stated) | inactive: 121%
Cc1nc2ncnn2c(C)c1CCC(=O)NCc1ccc(Cl)cc1 | inactive: 72%
O=C(CSc1ncc(S(=O)(=O)c2ccc(Br)cc2)c(=O)[nH]1)NCc1ccccc1Cl | inactive: 67%
CCN1CCN(C(c2ccc(Cl)cc2)c2c(O)cc(C)n(CCOC)c2=O)CC1 (configuration not stated) | inactive: 63%
COc1ccc(-c2cc(C(=O)Oc3ccc(Cl)cc3)c3ccccc3n2)cc1 | inactive: 60%
CC(C)c1nnc(SCC(=O)NC(C)(C)C)n1C | inactive: 106%
Cc1ccc(N(CCO)S(=O)(=O)c2ccc(NC3=NS(=O)(=O)c4ccccc43)cc2)cc1 | inactive: 106%
CCCCn1cnc2cc(NC(=O)c3cc(OC)c(OC)c(OC)c3)ccc21 | inactive: 79%
Cc1cc(C)cc(N(CC(=O)Nc2ccc(C(F)(F)F)cc2)S(=O)(=O)c2c(C)[nH]c(=O)[nH]c2=O)c1 | inactive: 66%
CCCC(=O)Nc1c(C(=O)N2CCN(c3ccccc3)CC2)oc2ccccc12 | inactive: 82%
COc1ccc(CCNC(=O)c2cc3cccc4c3n2CC(C)S4)c(OC)c1OC (configuration not stated) | inactive: 71%
CC(C)c1ccc(S(=O)(=O)Nc2cc3c(cc2NCc2ccccc2)n(C)c(=O)n3C)cc1 | inactive: 66%
CCC(=O)N1CCc2cc(S(=O)(=O)NC(Cc3ccccc3)C(=O)Nc3ccc(Cl)cc3)ccc21 (configuration not stated) | inactive: 76%
COc1ccccc1C(=O)N1CCC(c2c[nH]c3ccccc23)(c2c[nH]c3ccccc23)CC1 | inactive: 96%
O=C(CSc1nc(-c2ccccc2)[nH]c1-c1ccc(F)cc1)NC1CCCC1 | inactive: 77%
CC(C)(C)c1ccc(C(=O)Nc2ccc3nc(SCC(=O)N4CCCC4)sc3c2)cc1 | inactive: 89%

SMILES | survival
CCOc1ccccc1NC(=O)Cn1c(=O)n(Cc2ccco2)c(=O)c2cccnc21 | inactive: 67%
CCc1ccccc1NC(=O)C1=CC(c2ccc3c(c2)OCO3)=NS(=O)(=O)N1C | inactive: 78%
COc1ccccc1C(=O)CC1(O)C(=O)N(CC(N)=O)c2ccccc21 (configuration not stated) | inactive: 65%
Cc1ccc(C(=O)NC2CCN(C(=O)NC3CCCCC3)CC2)cc1 | inactive: 103%
O=C(CN1C(=O)COc2ccc(S(=O)(=O)N3CCCCCC3)cc21)N1CCN(c2cccc(Cl)c2)CC1 | inactive: 77%
CC(C)(C)OC(=O)N1CCC(c2c(C(=O)O)cnn2-c2ccc(F)cc2F)CC1 | inactive: 77%
CCOC(=O)c1c(NC(=O)CN(CC)CC)sc2c1CCC/C2=N\O | inactive: 112%
CCNC(=O)NC1(C(=O)Nc2ccc3c(c2)OCCO3)CCCCC1 | inactive: 113%
O=C(C1COc2cc(S(=O)(=O)Nc3ccc(Cl)cc3)ccc2O1)N1CCCC1 (configuration not stated) | inactive: 78%
Fc1ccc(-c2nnc(CN3CCN(c4ccccn4)CC3)o2)cc1 | inactive: 90%
COc1ccc(C(=O)c2cn(Cc3ccc(F)cc3)c3c(F)cc(F)cc3c2=O)cc1 | inactive: 133%
CCOC(=O)c1ccc(NC(=O)NC2CC3CCC(C2)N3C(=S)NCc2ccco2)cc1 (configuration not stated) | inactive: 112%
O=C(NCc1ccco1)c1nc2c(nnn2Cc2cccc(Cl)c2)c(=O)[nH]1 | inactive: 109%
O=C(Cn1ncc2c3ccccc3n(Cc3ccccc3)c2c1=O)NCc1ccccc1 | inactive: 90%
COC(=O)c1c(NC(=O)CCCOc2cccc(C)c2)sc2c1CCC(C)C2 (configuration not stated) | active: 4%
CC(C)NS(=O)(=O)c1ccc(OCC(=O)N2CCN(c3cccc(Cl)c3)CC2)cc1 | inactive: 116%
COc1cc(C2C(C(=O)Nc3ccccc3)=C(C)Nc3nc(SCC(=O)c4ccc(C)cc4)nn32)ccc1O (configuration not stated) | inactive: 97%
CCc1ccccc1N(C)C(=O)c1cc2c(s1)-c1c(C)cccc1OC2 | inactive: 69%
Cc1ccc(Cn2c(C)c(CNCc3ccccc3F)c(C(=O)O)c2C)cc1 | inactive: 92%
COC(=O)c1cccc(S(=O)(=O)N2CCOCC2)c1 | inactive: 115%
CCOC(=O)c1ccc(N2C(=O)c3n[nH]c(-c4ccco4)c3C2c2cccc(F)c2)cc1 (configuration not stated) | inactive: 13%
